Laboratory results: paper PMC4755750
Changes are numbered by the printed parent chain. Names may count otherwise. No constants are given. Whether binding was seen depends on the method and setting. In cells and extracts the contact can be indirect. Some binding calls cover weakened binding; strength is not graded here. Sequences can lack the tags named with a protein. One block for each binder: values may come before it.

Target: T1, CIDEA-HA (mouse) (UniProt O70302)
T1 sequence: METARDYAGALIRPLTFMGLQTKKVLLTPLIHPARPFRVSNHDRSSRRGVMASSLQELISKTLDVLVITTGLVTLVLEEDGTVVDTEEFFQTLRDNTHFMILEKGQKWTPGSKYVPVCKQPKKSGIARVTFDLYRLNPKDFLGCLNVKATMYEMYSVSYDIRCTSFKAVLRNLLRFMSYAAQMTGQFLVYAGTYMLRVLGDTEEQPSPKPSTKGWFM
Assay: co-IP; anti-HA or anti-V5 antibody on Dynabeads Protein G incubated with lysate of transfected cells (Hela named for Figure 6K); lysis in 50 mM Tris pH 8.0, 150 mM NaCl, 1% TRITON X-100; Western blot

binding: no binding
B1: DFF40 (protein, UniProt O54788 1-344)
chain: MCAVLRQPKCVKLRALHSACKFGVAARSCQELLRKGCVRFQLPMPGSRLCLYEDGTEVTDDCFPGLPNDAELLLLTAGETWHGYVSDITRFLSVFNEPHAGVIQAARQLLSDEQAPLRQKLLADLLHHVSQNITAETREQDPSWFEGLESRFRNKSGYLRYSCESRIRGYLREVSAYTSMVDEAAQEEYLRVLGSMCQKLKSVQYNGSYFDRGAEASSRLCTPEGWFSCQGPFDLESCLSKHSINPYGNRESRILFSTWNLDHIIEKKRTVVPTLAEAIQDGREVNWEYFYSLLFTAENLKLVHIACHKKTTHKLECDRSRIYRPQTGSRRKQPARKKRPARKR

binding: binds weakly
B3: CIDEA-△(126–155)-v5 (protein, UniProt O70302)
chain: METARDYAGALIRPLTFMGLQTKKVLLTPLIHPARPFRVSNHDRSSRRGVMASSLQELISKTLDVLVITTGLVTLVLEEDGTVVDTEEFFQTLRDNTHFMILEKGQKWTPGSKYVPVCKQPKKSGSVSYDIRCTSFKAVLRNLLRFMSYAAQMTGQFLVYAGTYMLRVLGDTEEQPSPKPSTKGWFM

binding: binds
B4: CIDEA-△(162–197)-v5 (protein, UniProt O70302)
chain: METARDYAGALIRPLTFMGLQTKKVLLTPLIHPARPFRVSNHDRSSRRGVMASSLQELISKTLDVLVITTGLVTLVLEEDGTVVDTEEFFQTLRDNTHFMILEKGQKWTPGSKYVPVCKQPKKSGIARVTFDLYRLNPKDFLGCLNVKATMYEMYSVSYDIVLGDTEEQPSPKPSTKGWFM

binding: binds
B6: hCIDEC-v5 (protein, UniProt Q96AQ7 1-238)
chain: MEYAMKSLSLLYPKSLSRHVSVRTSVVTQQLLSEPSPKAPRARPCRVSTADRSVRKGIMAYSLEDLLLKVRDTLMLADKPFFLVLEEDGTTVETEEYFQALAGDTVFMVLQKGQKWQPPSEQGTRHPLSLSHKPAKKIDVARVTFDLYKLNPQDFIGCLNVKATFYDTYSLSYDLHCCGAKRIMKEAFRWALFSMQATGHVLLGTSCYLQQLLDATEEGQPPKGKASSLIPTCLKILQ

binding: binds
B7: CIDEB (protein, UniProt O70303 1-219)
chain: MEYLSAFNPNGLLRSVSTVSSELSRRVWNSAPPPQRPFRVCDHKRTVRKGLTAASLQELLDKVLETLLLRGVLTLVLEEDGTAVDSEDFFQLLEDDTCLMVLEQGQSWSPKSGMLSYGLGREKPKHSKDIARITFDVYKQNPRDLFGSLNVKATFYGLYSMSCDFQGVGPKRVLRELLRWTSSLLQGLGHMLLGISSTLRHVVEGADRWQWHGQRHLHS

binding: binds
B8: CIDEC (protein, UniProt P56198 1-239)
chain: MDYAMKSLSLLYPRSLSRHVAVSTAVVTQQLVSKPSRETPRARPCRVSTADRKVRKGIMAHSLEDLLNKVQDILKLKDKPFSLVLEEDGTIVETEEYFQALAKDTMFMVLLKGQKWKPPSEQRKKRAQLALSQKPTKKIDVARVTFDLYKLNPQDFIGCLNVKATLYDTYSLSYDLHCYKAKRIVKEMLRWTLFSMQATGHMLLGTSSYMQQFLDATEEEQPAKAKPSSLLPACLKMLQ

binding: binds
B13: PLIN5 (protein, UniProt Q8BVZ1 1-463)
chain: MDQRGEDTTLAPHSRMSGDQTAQDPGSSLGELDQQNVVNRVVALPLVKATCTAVSSAYNSAKDRHPLLGSACRLAEHCVCSVTTCALDHAQPLLEHLQPQLATVNDLACRGLDKLEEKLPFLQQPSDMVVTSAKDTVAKSVTGMVDLAQRGRRWSGELRRSMSQAMDMVLGKSEKLVDRFLPMTEAELAVLAAEAEGPEVGTVEEQRQQQGYFVRLGSLSARLRHLAYEHSLGKLRQSKHRTQEMLAQLQETLELIQHMQRGASPSPTFHPPKTQELWGSWSPCLENGRSHSEVELETLALSRSLTLELQNAVDALAGCVRGLPPSAQAKVAEVQRSVDALQATFADAHCLGDVAPTALAEGRGSVARAHACVDEFLDLVLRAMPLPWLVGPFAPILVEQSEPLINLATCVDEVVGDPDPRWAHMDWPAQKRAWEAESADPGGQEAEPPRGQGKHTMMPELDF

The next lines start with the binder.

B2: hCIDEC-(E186X)-v5 (domain or fragment, UniProt Q96AQ7 1-185)
chain: MEYAMKSLSLLYPKSLSRHVSVRTSVVTQQLLSEPSPKAPRARPCRVSTADRSVRKGIMAYSLEDLLLKVRDTLMLADKPFFLVLEEDGTTVETEEYFQALAGDTVFMVLQKGQKWQPPSEQGTRHPLSLSHKPAKKIDVARVTFDLYKLNPQDFIGCLNVKATFYDTYSLSYDLHCCGAKRIMK
binding: binds

B5: CIDEA-(116–217)-v5 (domain or fragment, UniProt O70302 116-217)
chain: PVCKQPKKSGIARVTFDLYRLNPKDFLGCLNVKATMYEMYSVSYDIRCTSFKAVLRNLLRFMSYAAQMTGQFLVYAGTYMLRVLGDTEEQPSPKPSTKGWFM
binding: binds

B9: CIDEA-(1–118)-v5 (domain or fragment, UniProt O70302 1-118)
chain: METARDYAGALIRPLTFMGLQTKKVLLTPLIHPARPFRVSNHDRSSRRGVMASSLQELISKTLDVLVITTGLVTLVLEEDGTVVDTEEFFQTLRDNTHFMILEKGQKWTPGSKYVPVC
binding: no binding

B10: CIDEA-v5 (protein, UniProt O70302 1-217)
chain: T1 sequence
binding: binds

B11: CIDEA-(R171E/R175E)-v5 (protein, UniProt O70302 1-217)
chain: T1 sequence with R171E, R175E
binding: binds

B12: DFF45 (protein, UniProt O54786 1-331)
chain: MELSRGASAPDPDDVRPLKPCLLRRNHSRDQHGVAASSLEELRSKACELLAIDKSLTPITLVLAEDGTIVDDDDYFLCLPSNTKFVALACNEKWIYNDSDGGTAWVSQESFEADEPDSRAGVKWKNVARQLKEDLSSIILLSEEDLQALIDIPCAELAQELCQSCATVQGLQSTLQQVLDQREEARQSKQLLELYLQALEKEGNILSNQKESKAALSEELDAVDTGVGREMASEVLLRSQILTTLKEKPAPELSLSSQDLESVSKEDPKALAVALSWDIRKAETVQQACTTELALRLQQVQSLHSLRNLSARRSPLPGEPQRPKRAKRDSS
binding: no binding
